Where “and” joins values, the source holds several entries; their conditions need not be identical. Identical values can stand only once. Hit rate of the full screen: of about 220,000 compounds, about 5,700 (2.6%) were called active. Inconclusive means that the source gave no clear call. Such entries were picked first, then a sample of the others. The call rests on the fitted dose curve; in most records, active means well fitted inhibition curve with a large enough effect; inconclusive means small, poorly fitted or top-dose-only effect; inactive means no such curve, though single readings can be large or run the other way. A potency beside an inconclusive call is a rough fit, not a confirmed value.
target: Lysine-specific demethylase 5B (Homo sapiens) (UniProt Q9UGL1); assay: Primary screen for KDM5B Histone Demethylases FDH-coupled qHTS; conditions: FDH-coupled NADH fluorescence (FDH is formaldehyde dehydrogenase); activity change, negative = inhibition: at 57.7 µM (top of the series) unless noted; further: nearly all actives have a fitted effect of over 70% in size; on activity change, negative = inhibition: 0% is about no effect
How it was run: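 KDM5BΔAP (200 nM final) in 50 mM HEPES pH 7.5, 0.01% Tween-20 was preincubated 10 min at RT with compound over a concentration range. Substrate mix (H3K4me3 12.5 µM, α-KG 25 µM, Fe²⁺, ascorbate, NAD⁺, FDH) was added, and NADH fluorescence change over 30 min gave dose-response curves.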
Potency means the concentration at half of the fitted maximal effect; tags describe the fitted curve by direction and shape.

Chain of UniProt Q9UGL1 (Q9UGL1 whole entry, looked up): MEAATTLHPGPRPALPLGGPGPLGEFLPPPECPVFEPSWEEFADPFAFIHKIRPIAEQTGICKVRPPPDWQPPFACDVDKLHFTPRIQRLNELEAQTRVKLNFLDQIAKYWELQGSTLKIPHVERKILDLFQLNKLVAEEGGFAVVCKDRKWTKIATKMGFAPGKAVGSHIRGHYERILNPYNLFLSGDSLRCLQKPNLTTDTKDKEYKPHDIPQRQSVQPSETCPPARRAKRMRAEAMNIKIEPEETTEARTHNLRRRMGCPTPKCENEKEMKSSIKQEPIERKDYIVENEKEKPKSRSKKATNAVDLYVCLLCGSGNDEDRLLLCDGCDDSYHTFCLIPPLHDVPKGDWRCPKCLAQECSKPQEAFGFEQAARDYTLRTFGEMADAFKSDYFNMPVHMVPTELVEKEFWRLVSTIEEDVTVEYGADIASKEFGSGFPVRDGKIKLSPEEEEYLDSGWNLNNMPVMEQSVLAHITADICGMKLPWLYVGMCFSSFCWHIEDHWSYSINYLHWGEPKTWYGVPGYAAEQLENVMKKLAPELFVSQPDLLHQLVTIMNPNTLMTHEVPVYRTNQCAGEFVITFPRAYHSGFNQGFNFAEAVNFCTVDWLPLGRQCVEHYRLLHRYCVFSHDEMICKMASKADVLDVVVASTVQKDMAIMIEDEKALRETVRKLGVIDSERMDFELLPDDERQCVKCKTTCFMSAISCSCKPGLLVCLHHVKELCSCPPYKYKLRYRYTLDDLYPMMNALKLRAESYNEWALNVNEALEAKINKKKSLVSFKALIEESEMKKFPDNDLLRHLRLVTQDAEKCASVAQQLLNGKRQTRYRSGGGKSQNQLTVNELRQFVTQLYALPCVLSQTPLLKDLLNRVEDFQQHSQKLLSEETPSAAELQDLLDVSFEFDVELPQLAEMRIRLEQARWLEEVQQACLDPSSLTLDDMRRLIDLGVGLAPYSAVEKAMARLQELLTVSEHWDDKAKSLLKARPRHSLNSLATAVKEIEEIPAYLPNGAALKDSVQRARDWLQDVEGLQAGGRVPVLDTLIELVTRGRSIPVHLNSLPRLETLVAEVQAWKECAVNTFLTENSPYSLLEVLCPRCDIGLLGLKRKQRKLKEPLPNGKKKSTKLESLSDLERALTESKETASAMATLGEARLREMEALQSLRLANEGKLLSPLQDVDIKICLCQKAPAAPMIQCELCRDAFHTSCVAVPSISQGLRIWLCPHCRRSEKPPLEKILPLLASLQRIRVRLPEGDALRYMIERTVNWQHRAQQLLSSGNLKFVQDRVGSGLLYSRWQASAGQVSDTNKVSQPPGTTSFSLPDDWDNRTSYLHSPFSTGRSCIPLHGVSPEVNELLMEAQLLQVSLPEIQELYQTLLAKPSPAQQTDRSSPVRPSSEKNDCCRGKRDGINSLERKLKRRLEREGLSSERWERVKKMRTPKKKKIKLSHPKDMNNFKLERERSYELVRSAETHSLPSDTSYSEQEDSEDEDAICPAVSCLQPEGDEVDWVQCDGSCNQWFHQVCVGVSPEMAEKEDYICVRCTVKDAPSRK

Compound | Potency | activity change, negative = inhibition
COc1ccccc1Oc1nc2c(C)cccn2c(=O)c1/C=C(\C#N)c1nc2ccccc2[nH]1 | inconclusive: 15.8 µM [inhibitor, partial curve, poor fit] | 
O=[N+]([O-])c1cc(C(F)(F)F)ccc1NC1C2CC3CC(C2)CC1C3 (stereo unspecified) | inactive | 
CCOc1ccccc1NC(=O)Cn1c(N2CCC(C)CC2)nc(C)cc1=O | inconclusive: 14.1 µM [inhibitor, partial curve] | 
Fc1ccc(NC(=S)N[C@H]2CO[C@H]3[C@@H]2OC[C@@H]3n2nnnc2-c2ccccc2)cc1 | inconclusive: 35.5 µM [inhibitor, single point] | 
Cc1nn(CC(=O)NCc2cccc(F)c2)c(=O)c2c(C)n(-c3ccc(Cl)cc3)nc12 | inconclusive: 39.8 µM [inhibitor, single point] | 
c1cnc2nc(C3CCCN3)[nH]c2c1 (stereo unspecified) | inconclusive: 141 µM [inhibitor, partial curve, poor fit] | 
CC(C)CC(=O)N1C(C(=O)NCC2CCCO2)COC12CCCC(C)C2 (stereo unspecified) | inactive | 
CCCCCCCCSCCCCCCCO | inactive | 
O=C(N1CCN(Cc2ccccc2)CC(O)C1)C1(N2CCCC2)CCCC1 (stereo unspecified) | inconclusive: 3.98 µM [inhibitor, full curve] | 
COc1ccc(C(=O)N2CCn3c(nn(-c4ccc(C(F)(F)F)cc4)c3=O)C2)cc1 | inconclusive: 79.4 µM [inhibitor, single point] | 
O=C1CO[C@H]2CN(Cc3ncc[nH]3)C[C@H]2N1Cc1ccccc1 | inconclusive: 31.6 µM [inhibitor, single point] | 
Fc1ccc(CN2CC[C@H](c3nnc(-c4ccccc4F)o3)C2)cc1 | inconclusive: 35.5 µM [inhibitor, single point] | 
COc1ccccc1NC(=O)CSc1oc(-c2ccco2)nc1S(=O)(=O)c1ccc(Br)cc1 | inconclusive: 25.1 µM [inhibitor, partial curve, poor fit] | 
O=C(CCc1ccco1)Nc1ccc(N2CCCC2)cn1 | inconclusive: 22.4 µM [inhibitor, partial curve, poor fit] | 
COCCNC(=O)c1ccc2c(c1)N(C)C(CC(=O)NCC(F)(F)F)CO2 (stereo unspecified) | active: 20 µM | 
Cc1cc(C)c(S(=O)(=O)NCC(c2ccc(N(C)C)cc2)N2CCc3ccccc32)c(C)c1 (stereo unspecified) | inconclusive: 35.5 µM [inhibitor, single point] | 
O=C(CN1C(=O)COc2ccc(S(=O)(=O)N3CCCCC3)cc21)NCc1ccccc1Cl | inconclusive: 3.55 µM [inhibitor, partial curve, poor fit] | 
CCOC(=O)c1ccc(Nc2nc(C(=O)OCC)nc3ccccc23)cc1 | inconclusive: 39.8 µM [inhibitor, partial curve, poor fit] and inconclusive: 35.5 µM [inhibitor, single point] | 
C=CCN1CCN(C(=O)CCC[C@H]2NC[C@@H]3C[C@H]2CN(Cc2ccccc2)C3)CC1 | inconclusive: 7.94 µM [inhibitor, partial curve] | 
Cc1ccc(C)c(CN2C(=O)c3ccccc3S(=O)(=O)c3ccc(C(=O)N4CCN(C)CC4)cc32)c1 | inconclusive: 35.5 µM [inhibitor, single point] | 
COc1ccc(N(C)C2CN(C(=O)OC(C)(C)C)C2)cc1 | inconclusive: 100 µM [inhibitor, partial curve] | 

Compound | Potency | activity change, negative = inhibition
Cc1ccc2c(C(=O)N3CCN(c4ccc(F)cc4)CC3)cc(NC(=O)C(C)C)cc2n1 | inconclusive: 31.6 µM [inhibitor, partial curve, poor fit] | 
CC(C)c1ccc(NC(=O)CN2C(=O)c3cccc4cccc2c34)cc1 | inconclusive: 5.62 µM [inhibitor, partial curve, poor fit] | 
Cc1ccc(-c2cc(C(=O)N3CCCC(C(F)(F)F)C3)c3ccccc3n2)o1 (stereo unspecified) | inconclusive: 22.4 µM [inhibitor, partial curve, poor fit] | 
O=C(CS(=O)(=O)Cc1coc(-c2ccc(F)cc2)n1)NC1CCCCCC1 | inactive | 
CCc1ccc(S(=O)(=O)c2cn(C)c3cc(OC)c(OC)cc3c2=O)cc1 | inconclusive: 31.6 µM [inhibitor, partial curve, poor fit] | 
COc1ccc(-c2cnc([C@@H]3COCCN3)[nH]2)cc1 | inconclusive: 31.6 µM [inhibitor, partial curve, poor fit] | 
COC[C@H]1C[C@@H](NS(=O)(=O)c2cccc(F)c2)[C@H](O)[C@@H]1O | inactive | 
O=C(NCC1CCCO1)c1ccc(COc2ccccc2)cc1 (stereo unspecified) | inactive | 
CCN(CC)S(=O)(=O)c1ccc2nc(NC(=O)c3ccc(Br)o3)sc2c1 | inconclusive: 14.1 µM [inhibitor, partial curve, poor fit] | 
CCCNC(=O)c1cc(-c2ccc(OC)cc2OC)nc2ccccc12 | inconclusive: 17.8 µM [inhibitor, partial curve, poor fit] | 
Cc1cc(NC(=O)CCc2ccc(-c3ccccc3)o2)no1 | inconclusive: 28.2 µM [inhibitor, partial curve, poor fit] | 
CNC(=O)NC(=O)C(C)Sc1ccc(F)cc1 (stereo unspecified) | inactive | 
O=C(NCCCCNC(=O)C1CC1)C1CC1 | inactive | 
CCOc1cccc(C2c3[nH]c4ccccc4c3CCN2C(=O)CCc2ccccc2)c1 (stereo unspecified) | inconclusive: 28.2 µM [inhibitor, single point] | 
Cc1ccc(NS(=O)(=O)c2ccc(C(=O)N(C)Cc3ccccc3)cc2)cc1C | inactive | 
CCOc1ccc(CN2CCNC(=O)C2CC(=O)NCc2cc(C)n(C)n2)cc1 (stereo unspecified) | inconclusive: 31.6 µM [inhibitor, single point] | 
CC(C)CCNC(=O)NC(=O)COC(=O)Cc1n[nH]c(=O)c2ccccc12 | inactive | 
N#Cc1nc(-c2cccs2)oc1N1CCN(C(=O)c2ccccc2Cl)CC1 | inconclusive: 1.78 µM [inhibitor, partial curve, poor fit] | 
CCn1c(C)cc(-c2csc(NCc3ccccc3OC)n2)c1C | inactive | 
CCOC(=O)C1CCCN(C(=O)c2cc3c(s2)CN(C2CCCC2)C3)C1 (stereo unspecified) | inconclusive: 5.62 µM [inhibitor, partial curve] | 
CCOc1ccc(C2/C(=C(\O)c3ccc(C)c(F)c3)C(=O)C(=O)N2Cc2ccco2)cc1OC (stereo unspecified) | inconclusive: 15.8 µM [inhibitor, partial curve, poor fit] | 

Compound | Potency | activity change, negative = inhibition
Cc1ccc(-c2cc(C(=O)NCc3ccccc3)c3ccccc3n2)o1 | inconclusive: 28.2 µM [inhibitor, partial curve, poor fit] | 
CC1Oc2ccc(NC(=O)c3ccc(F)cc3F)cc2CN(Cc2ccc(Cl)cc2)C1=O (stereo unspecified) | inconclusive: 31.6 µM [inhibitor, single point] | 
COc1ccc(-c2noc([C@@H](C)NC(=O)c3nc4ccccc4s3)c2C(=O)O)cc1 | inconclusive: 31.6 µM [inhibitor, single point] | 
CN(C)C(=O)N1CCn2nc(CNC(=O)c3cc4ccccc4n3C)cc2C1 | inconclusive: 20 µM [inhibitor, partial curve] | 
COc1ccc(Cl)cc1C(=O)N1CCC(N2CC3CC(C2)[C@H]2CCCC(=O)N2C3)CC1 (stereo partly specified) | inconclusive: 12.6 µM [inhibitor, partial curve] | 
COc1ccc(NCc2nc3ccccc3n2CCOc2ccc(C)cc2)cc1 | inconclusive: 25.1 µM [inhibitor, single point] | 
Cc1ccc(-n2ncc3c(N4CCC(C)CC4)ncnc32)cc1C | inconclusive: 35.5 µM [inhibitor, partial curve, poor fit] | 
Cc1c(C(=O)Nc2ccc3c(c2)N(C)C(=O)CO3)oc2ccccc12 | inconclusive: 1.78 µM [inhibitor, partial curve, poor fit] | 
O=C1NCc2ccccc2CC12CCCN(Cc1ccnc3ccccc13)C2 (stereo unspecified) | inconclusive: 56.2 µM [inhibitor, partial curve, poor fit] | 
CN1CCC(CNC(=O)c2cc(-c3ccc(F)cc3)cc3ncn(C)c23)CC1=O (stereo unspecified) | active: 31.6 µM | 
CC(NC(=O)c1csc2nc(-c3cccc(C(F)(F)F)c3)cn12)c1ccncn1 (stereo unspecified) | inconclusive: 8.91 µM [inhibitor, full curve, poor fit] | 
CCOc1ccc(S(=O)(=O)c2cn(Cc3ccc(C)cc3)c3ccc(OC)cc3c2=O)cc1 | inconclusive: 8.91 µM [inhibitor, partial curve, poor fit] | 
Cc1ccc(-c2cnc(NCc3ccc(C(C)C)cc3)n2C)cc1 | inconclusive: 17.8 µM [inhibitor, partial curve, poor fit] | 
O=C(NCc1cccc(Br)c1)c1ccc(-n2cnc3cccnc32)cc1 |  | inconclusive: -30.5% [inhibitor]
CNS(=O)(=O)CCNc1nccc(-c2cc(C(=O)O)ccn2)n1 | inconclusive: 25.1 µM [inhibitor, partial curve, poor fit] | 
O=C(COc1ccccc1)N1CCC2(CC1)CN(c1ncccn1)CC2CO (stereo unspecified) | active: 22.4 µM | 
COC(=O)c1cc(NC(=O)c2cnc(SC)nc2-c2ccccc2)cc(C(=O)OC)c1 | inconclusive: 35.5 µM [inhibitor, single point] | 
Cc1c(CCNS(=O)(=O)c2ccccc2)sc2nc(-c3ccc(Cl)cc3)nn12 | inconclusive: 3.55 µM [inhibitor, partial curve, poor fit] | 
c1cnc(N2CCC3(CCCN3Cc3ccc(-c4ccn[nH]4)s3)CC2)nc1 | inconclusive: 28.2 µM [inhibitor, partial curve, poor fit] | 

Source: PubChem BioAssay AID1347165 (National Center for Advancing Translational Sciences (NCATS), 2019)
